Results on 23 molecules are retold here after article PMC4336329 (PLoS ONE, 2015).

The campaign covered roughly 310,000 compounds. About 14,000 (4.5%) showed an effect of 50% or more. Effects have a minus sign here. The list shows a part of the results.
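Also: peak tail current of the secondary pulse compared with the same well before compound.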

The target in the test is human ether-à-go-go-related gene (hERG) potassium channel (human, UniProt Q12809). Nature of the test: primary screen, population patch clamp on CHO cells stably expressing hERG.
Chain of human ether-à-go-go-related gene (hERG) potassium channel (Q12809 whole entry, looked up): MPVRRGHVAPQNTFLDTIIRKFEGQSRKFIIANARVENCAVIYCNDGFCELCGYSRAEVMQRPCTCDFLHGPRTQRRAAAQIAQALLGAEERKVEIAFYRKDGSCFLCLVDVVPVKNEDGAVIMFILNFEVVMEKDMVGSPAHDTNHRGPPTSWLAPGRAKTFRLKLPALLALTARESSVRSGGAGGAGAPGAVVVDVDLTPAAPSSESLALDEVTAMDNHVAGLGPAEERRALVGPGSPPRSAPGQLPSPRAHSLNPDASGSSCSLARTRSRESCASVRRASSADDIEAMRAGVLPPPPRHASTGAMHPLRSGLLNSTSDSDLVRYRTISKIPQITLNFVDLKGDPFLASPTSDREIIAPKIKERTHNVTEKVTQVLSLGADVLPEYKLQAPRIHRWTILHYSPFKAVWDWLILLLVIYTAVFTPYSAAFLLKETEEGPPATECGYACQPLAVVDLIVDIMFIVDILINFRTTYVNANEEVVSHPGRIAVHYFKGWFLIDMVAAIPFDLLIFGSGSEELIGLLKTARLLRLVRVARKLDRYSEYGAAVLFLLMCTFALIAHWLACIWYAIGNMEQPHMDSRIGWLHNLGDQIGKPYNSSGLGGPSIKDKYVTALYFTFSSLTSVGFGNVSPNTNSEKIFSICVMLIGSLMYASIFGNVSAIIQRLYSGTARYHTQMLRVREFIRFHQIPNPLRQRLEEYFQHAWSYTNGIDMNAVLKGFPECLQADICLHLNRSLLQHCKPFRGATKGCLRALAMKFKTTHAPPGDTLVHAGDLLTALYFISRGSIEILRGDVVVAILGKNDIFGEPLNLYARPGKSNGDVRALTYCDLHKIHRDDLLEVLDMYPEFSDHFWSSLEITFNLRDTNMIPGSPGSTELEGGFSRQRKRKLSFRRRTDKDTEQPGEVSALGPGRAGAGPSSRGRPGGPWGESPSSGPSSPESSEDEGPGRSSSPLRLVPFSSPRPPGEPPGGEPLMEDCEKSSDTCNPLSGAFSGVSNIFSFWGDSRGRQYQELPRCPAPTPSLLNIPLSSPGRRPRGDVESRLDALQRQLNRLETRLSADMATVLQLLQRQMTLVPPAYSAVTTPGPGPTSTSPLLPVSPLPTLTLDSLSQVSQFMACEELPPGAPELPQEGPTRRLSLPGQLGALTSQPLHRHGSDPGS
Consider `CCOC(=O)Nc1n[nH]c(NC(=O)OCC)c1[N+](=O)[O-]`, for which the “hERG current change (%, negative = inhibition) at 10uM” value is 5.13%. Turning to `O=C(COc1ccccc1Cl)Nc1nc(-c2cccs2)cs1`, the “hERG current change (%, negative = inhibition) at 10uM” value turned out to be 2.85%. The result for `CCN(CC)CCNC(=S)Nc1ccc(Cl)cc1` reads -21.7%; that for `CCN1CCN(S(=O)(=O)c2ccc(Cl)c(C(=O)Nc3ccccc3N3CCCC3)c2)CC1`, -24.5%. `CC(c1ccccc1)n1c(N2CCNCC2)nc2c1c(=O)[nH]c(=O)n2C` (centres unmarked): the “hERG current change (%, negative = inhibition) at 10uM” value turned out to be 6.32%.

Consider `O=[N+]([O-])c1ccc(N2CCCC2)cc1NC1CC1`, for which the “hERG current change (%, negative = inhibition) at 10uM” value was -0.823%. For `COc1cc(/C=C2\SC(=S)N(c3cccnc3)C2=O)ccc1O`, the “hERG current change (%, negative = inhibition) at 10uM” value was found to be 5.42%. As for `CC(C)[C@@H](C(=O)N[C@@H](C(=O)O)c1ccccc1)N1C(=O)N2CCc3c([nH]c4ccccc34)[C@@]2(C)C1=O`, the figure is 3.07%.

Regarding `CN(CC(=O)Nc1ccccc1Cl)CC(=O)N1CCc2ccccc21`, the “hERG current change (%, negative = inhibition) at 10uM” value is listed as -8.36%.

As to `COc1ccc(CNC(=O)CN(C(=O)CCC(=O)Nc2ccccn2)c2ccccc2OC)cc1`, the “hERG current change (%, negative = inhibition) at 10uM” value was -15.4%.

As to `C=C1CCN([C@@H](Cc2ccccc2)C(=O)NCc2ccccc2)S(=O)(=O)c2ccccc21`, the “hERG current change (%, negative = inhibition) at 10uM” value was -9.46%.

For the molecule `Cc1ccc(-n2nc(C)c(C(=O)N3CCN(C(=O)c4ccco4)CC3)c2-n2cccc2)cc1`, the “hERG current change (%, negative = inhibition) at 10uM” value is given as -26.1%. In the case of `CSCCC(NS(=O)(=O)c1ccc(C)cc1)C(=O)Nc1ccc(C)cn1` (centres unmarked), the “hERG current change (%, negative = inhibition) at 10uM” value was 2.68%. The result for `CCOC(=O)/C=C1\CN(C(C)c2ccccc2)S(=O)(=O)c2ccccc21` (centres unmarked) reads -6.23%; that for `COc1cc(OC)c(NS(=O)(=O)c2cc3[nH]c(=O)c(=O)[nH]c3cc2C)cc1Cl`, 24%; that for `COc1ccccc1/C=C/C=N/n1c(-c2ccccn2)n[nH]c1=S`, 14.8%. As for `COc1cc(/C=c2\s/c(=C\C(=O)C(C)(C)C)[nH]c2=O)cc(OC)c1OC`, the figure is -7.35%; as for `CC1CCCCC1NC(=O)Cn1nc(-c2ccccc2)ccc1=O` (centres unmarked), -4.3%. As for `CC(C)CNc1nc(Oc2ccc(=O)[nH]n2)nc(N2CCOCC2)n1`, the “hERG current change (%, negative = inhibition) at 10uM” value was 7.99%. The result for `CC(C)N(Cc1cc2ccccc2[nH]c1=O)C(=O)C1CCCCC1` reads -14.5%; that for `CCCN(C(=O)COC(=O)c1[nH]c(C)c(C(=O)OC)c1C)c1c(N)n(Cc2ccccc2)c(=O)[nH]c1=O`, 16.2%. With `O=C(Cn1cnc(S(=O)(=O)N2CCCCC2)c1)NCc1ccco1`, the “hERG current change (%, negative = inhibition) at 10uM” value is 8.34%. The result for `Cc1cc(C)c2c(=O)n(CC(=O)Nc3cccc(Cl)c3C)sc2n1` reads 1.13%.
